From the supplement of paper PMC3334620
The full ranking holds about 33,000 sequences; the median of “E-score (-0.5 to 0.5)” is about -0.041, and the highest 2% start at about 0.37. Some of the results follow.

Target: T1, Ecm22 (UniProt Q05958)
T1 sequence: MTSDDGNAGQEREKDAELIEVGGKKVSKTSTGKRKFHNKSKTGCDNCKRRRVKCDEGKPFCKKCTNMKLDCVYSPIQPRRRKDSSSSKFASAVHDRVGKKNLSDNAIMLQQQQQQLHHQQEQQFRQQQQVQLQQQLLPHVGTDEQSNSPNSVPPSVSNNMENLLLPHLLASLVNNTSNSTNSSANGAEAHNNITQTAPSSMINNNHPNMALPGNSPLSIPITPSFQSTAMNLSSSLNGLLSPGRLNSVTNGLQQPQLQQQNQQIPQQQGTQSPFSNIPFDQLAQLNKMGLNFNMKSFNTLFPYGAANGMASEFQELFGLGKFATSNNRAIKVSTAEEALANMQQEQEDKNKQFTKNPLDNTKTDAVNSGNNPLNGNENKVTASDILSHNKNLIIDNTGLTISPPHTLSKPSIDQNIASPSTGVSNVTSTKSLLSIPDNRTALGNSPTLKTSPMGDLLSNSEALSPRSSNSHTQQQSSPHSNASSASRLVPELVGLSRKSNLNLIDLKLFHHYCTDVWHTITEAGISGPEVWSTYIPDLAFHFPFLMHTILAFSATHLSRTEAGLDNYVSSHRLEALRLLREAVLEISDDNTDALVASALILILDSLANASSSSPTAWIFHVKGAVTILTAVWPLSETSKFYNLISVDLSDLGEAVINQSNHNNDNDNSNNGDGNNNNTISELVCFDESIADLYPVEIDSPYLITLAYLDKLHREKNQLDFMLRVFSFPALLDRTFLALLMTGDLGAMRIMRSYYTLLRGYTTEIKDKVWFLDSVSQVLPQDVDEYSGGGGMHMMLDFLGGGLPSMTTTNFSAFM
Experiment: PBM E-score (8-mer binding enrichment) (E-score (-0.5 to 0.5)); higher = stronger / more preferred TF binding; most listed sequences are background and not binding sites
Conditions: protein concentration: 200 nM; construct: GST-full length
How it was run: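 For each ungapped eight-base word taken together with its reverse complement, the Universal PBM Analysis Suite assigned an E-score. Binding data came from GST-tagged yeast transcription factors, applied at about 100-200 nM, on universal all-10-mer Agilent arrays made double-stranded by primer extension. Fluorescent anti-GST marked bound protein, and scans were normalised with masliner.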

Sequence | PBM E-score
AGTTGCAC | -0.042
ATGTTAGC | 0.011
TAGTTAGA | -0.0513
ACTCAATC | -0.0264
CACATCTA | -0.023
GTACCCAA | 0.105
AGTATACC | 0.0306
GACTAGTC | -0.227
CTGCCCTC | -0.216
CAGAACCC | 0.0344
GCGACCAC | 0.106
AGAACCGA | 0.198
GCATTTCA | -0.0583
AATCCGAA | 0.091
ATCCGTGG | -0.212
ATACATTA | 0.0514
AGGCGACA | -0.162
GATATGGA | 0.196
AGGTTCGG | 0.0855
AAGCTGGC | -0.0255
CAGGGAAA | 0.0935
AATGTCCC | -0.211
AGACCGGC | -0.00407
AGGGGTGA | -0.338
CAAACGGG | 0.289

Sequence | PBM E-score
GCGTAAAC | 0.271
GAACCGTA | 0.248
CCGCAGCG | -0.0888
CTCGCTGA | -0.0623
ATAAAACG | 0.315
ACTTTGGC | 0.101
ACTATCGA | 0.067
GGCACAAC | -0.169
CAAAGGTA | -0.06
TGTTCCAA | -0.0262
ACTACTGC | 0.0658
CCTCACAC | -0.164
CGAGCTCC | 0.319
GCATGAGA | -0.225
ACATTGAC | -0.0521
CCAACTCA | -0.147
GTTCCTAA | 0.13
GTAGTGGA | -0.0911
CCCTCCTC | -0.109
ACCACTCG | 0.232
AGTCTTTG | -0.0796
ATAGCAGC | -0.338
AAATAAGT | -0.115
ATACATAC | 0.162
ACCCTAGC | -0.188

Sequence | PBM E-score
ACGGTTAG | -0.0946
GCTGAGGA | -0.215
TAACAGCA | 0.0291
AACAGCAC | 0.0118
AATCCGAG | 0.237
AGGAATGC | 0.014
TCTTTCAA | -0.0995
GGCCTTGA | -0.0685
CTTTGACC | -0.0364
AATCTCTC | 0.0329
ACGTACCA | 0.306
CGGATTCA | -0.0829
GCATCGGA | 0.126
AGTTTCTG | -0.0553
GAGCTTCA | 0.0348
GTTTTGCA | -0.0475
AGCTCTCA | -0.173
CGAACGAA | 0.393
AAGCTCTG | -0.258
GTTTAGTA | 0.271
CTAAGCAA | -0.202
ACGAATTG | 0.245
GATCGAAC | 0.0918
GCGGTTAC | 0.0599
CAAGTTTA | -0.047

Sequence | PBM E-score
CCCAGTGC | 0.101
CCCCCATC | -0.167
CCTAATTA | -0.174
GTCCTTAA | -0.0655
AATCCGGC | -0.0348
CGTAATAG | 0.247
TAGGTCAA | -0.0569
ATAGTCTA | -0.0728
TCCGTCCA | 0.0127
CCACCTGC | -0.273
CAGTCATC | -0.0607
CCTTTCTC | -0.112
CGTACCGA | 0.447
ACAAACAA | -0.0654
CTGCATCC | -0.11
ATATATTC | 0.167
ACGAGGTC | 0.389
ACCCGAAA | 0.14
GGGTATTA | 0.0254
CATAGAGG | -0.145
AGCATTAT | -0.171
GCGGGTAA | -0.0692
GGCCGTAC | 0.419
ATACCGAG | 0.107
CGTCATGA | -0.0328

Sequence | PBM E-score
CTCATTTC | -0.113
ATATGTGC | 0.0592
AATTAGGC | 0.0178
CGTGAACA | 0.153
ATTTGCCC | -0.174
ACTGGTAC | 0.137
TGACTAAA | -0.284
CTAAATAC | 0.178
CTTGATGA | 0.0629
TAACCAAA | -0.0322
TGGGCCCA | 0.135
CCGACATA | 0.0428
ACTAGGTA | -0.149
AAAAGGCT | -0.188
ATTGAGAA | 0.182
ACCGTCGA | -0.216
GGCGTAAA | 0.159
CGTCGAAG | 0.024
ACCTGTCG | 0.164
CGAAGATC | 0.23
CGTCCATC | -0.102
AGTGGTAA | -0.005
AGGATACA | -0.162
GTGGCGGA | -0.152
CCTTGGAA | -0.179

Sequence | PBM E-score
CTAGTGCC | -0.265
GACAAGGA | -0.113
AAACTCTT | -0.254
AGAAATCC | -0.0579
AGGGATTA | 0.0278
GAACGGGA | 0.327
ACCCAAGC | -0.135
CGAAGAAG | 0.156
AATCCGTC | 0.0386
ACTACCAC | -0.216
CCTGAGCA | -0.0624
ACTACCTG | -0.128
AGTCTCAA | -0.205
GAGTGGCA | 0.0213
GTACACAC | 0.301
CAGCCACG | -0.171
ACAAGGCA | -0.256
ACATGGAG | -0.101
GAGCTCCA | -0.0784
AGCATCAC | -0.158
ATAATTAA | 0.179
ACAAGTGT | -0.0175
AGCAGGGC | -0.0233
ACGATCTG | 0.23
GCACCGCC | -0.036

Sequence | PBM E-score
GCATGAAA | 0.0408
CTGGTATC | -0.157
CGCCCTGA | -0.15
AAGACATT | -0.164
GATCGGTA | 0.128
ACATTCCT | -0.118
AAGAACCG | 0.125
CATCTCTA | -0.0595
GCGGTTCA | -0.184
GCAACCTA | -0.183
GACCGCAA | 0.18
CCAGCACG | -0.0336
AGCCGAAC | 0.0556
CCCCCAAG | -0.353
ATAAACAC | 0.106
GCCAAAAA | -0.181
TGGGACAA | -0.366
CGCCGATC | -0.0427
ACGAACAG | 0.282
CCTCCAGG | -0.204
ACTTCTAT | 0.0379
AACTACAT | -0.202
ATGCACGA | 0.0562
CACAAACC | -0.308
CTCAGGAC | -0.221

Sequence | PBM E-score
ATTCAGTG | -0.116
AGACTATC | -0.0846
AGGCGTGC | -0.0547
TAGGGAGA | -0.252
AGCGCACG | 0.097
ACAGTAGG | 0.0971
ATCGCGCA | -0.00295
GAACACAA | 0.205
GCCTCTCC | -0.22
AATATTAG | 0.17
GTCATCAC | -0.135
ATGCTGAA | -0.219
AAGCCATC | -0.023
ATTAGTTA | -0.0061
CAGCCGAC | -0.0956
TCCTTAGA | -0.202
AGACCTGA | -0.243
CACGTCCA | -0.172
TGATATAA | -0.0663
ATCCCCTG | -0.0196
ACTACAGA | 0.166
ACTGCTTG | -0.206
AAAACGAG | 0.362
CGTCAGTA | -0.0604
GAGGGAGC | -0.152

Sequence | PBM E-score
CCGGCGAG | 0.0706
AGGTTTAA | -0.15
GAGCTACC | -0.158
CCAATAAG | -0.213
GCTGTGCC | -0.145
TGCCCGAA | 0.0113
GAGAAGCC | -0.0701
ACGCCTTA | 0.0674
GAAGTCGC | 0.108
CCACGGAA | 0.0499
GTATCCGA | 0.309
CTTCATAA | -0.0866
CCACTAGG | -0.424
AATACCGC | 0.00652
ACTTCCAT | 0.0956
GGGTCCTA | -0.218
CATTGACC | 0.0205
ATTTTCCA | -0.0726
CGACAACA | 0.234
